Source: the supplement of paper PMC10126150
Values marked as one replicate rest on one cluster of the flow cell; about a third of the high ones do not repeat.

Test system: ATP
Assay: switch fluorescence ratio, 500 uM ATP over buffer (Cy3 cluster intensity, sum of 5 cycles each) (fold (ratio)); higher = stronger signal-on switching upon ATP binding; sequences stand for … in TCGTCGGCAGCGTCAGATGTGTATAAGAGACAGTTTTTTTTTTTTTTTTTTTTTTTTT…TC
Conditions: aptamer strand: ATP DNA aptamer (quencher-CACCTGGGGGAGTATTGCGGAGGAAGG + anchor), 100 nM annealed; ATP concentration: 500 uM; one replicate
Outline: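 Clusters with intensities outside 100-1000 RFU were excluded. The remaining Cy3-labelled switching-strand clusters on a modified Illumina MiSeq flow-cell had been annealed to 100 nM quencher-labelled ATP aptamer and imaged in selection buffer, then after 15 min with 500 uM ATP at 22 °C, for five cycles separated by NaOH stripping and re-annealing. The fluorescence ratio, averaged per switch-domain sequence, is each cluster's summed target-cycle Cy3 intensity over its summed buffer-cycle Cy3 intensity.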
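Also: ATP exposure 15 min at 22 °C before imaging.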

Row | Sequence | switch fluorescence ratio
1 | TCGCGTACAC | 1.92
2 | CCCAGCGTAA | 1.74
3 | CTCGGTCCTA | 1.02
4 | TGGAACCACA | 1.05
5 | TAAGACCAGA | 0.99
6 | TCCAGTCTAC | 1.14
7 | GGCTAATAGG | 1.03
8 | ATCCTTAAGT | 1.06
9 | GAGAAGGGTA | 0.975
10 | ACAGTGGACG | 1.01
11 | AGGCATCTGT | 0.984
12 | GTGCGGGGGC | 1.03
13 | AATCATCGCA | 1.04
14 | TTACAATGT | 1.48
15 | TAGTCTACAG | 1.04
16 | AATGAGGAC | 1.29
17 | TGCTTGTTGG | 0.977
18 | TCCTGGAAAA | 1.03
19 | AAGAGTTTGA | 0.955
20 | GGGGAGCATA | 1.11
21 | ACAGGTATGG | 0.99
22 | TTAGGATGAC | 1.01
23 | ACTTTCGTAC | 1.09
24 | CCTATTCCTT | 1.04
25 | TTTCTTGC | 1.05
26 | AAGTTTGCAA | 0.959

Row | Sequence | switch fluorescence ratio
27 | CAATTTCAAG | 0.964
28 | AATATGCCGT | 0.989
29 | CCAGGTCAGG | 1.16
30 | AGTAATAACC | 1.08
31 | AAATCGCACG | 1.1
32 | TGTGAACCCG | 0.983
33 | GCGGTTGGTT | 1.02
34 | CTCAGTGCAA | 2.44
35 | CGGTTGGGAC | 1.01
36 | TGAACCCTGA | 1.02
37 | GACGTAGGC | 1.01
38 | CTCTTTATGA | 1.01
39 | TTTAAAACCG | 1.03
40 | TGCGTTGAGT | 1.02
41 | TAGCACGGTG | 1.05
42 | GCGAAGAGCA | 1.06
43 | CTGCCCGGGC | 1.03
44 | GGGAAGGAGA | 0.967
45 | TGAAGAGGCG | 0.992
46 | GGGATATACT | 1.17
47 | GAAAAACTAT | 1.31
48 | AAATAAATTA | 1.06
49 | GACTCGGGGA | 0.982
50 | GGTAACGGTT | 0.956
51 | TAACAGTCGG | 1.05
52 | GACATCCTGG | 0.979

Row | Sequence | switch fluorescence ratio
53 | ACCTGTAAGG | 1.03
54 | AAATCAAGAT | 1.01
55 | TCAGGTCATC | 1.02
56 | CCCGGATACT | 2.48
57 | GTGGTTCTCC | 1.2
58 | AGTTTCTGAT | 0.978
59 | GGGTTCTGAT | 0.969
60 | GAAAAATCTA | 0.958
61 | GTTACGCGAC | 1.07
62 | CGCGAATCGT | 1
63 | TGGTAGCGT | 1.02
64 | AAAACTAGCA | 1.02
65 | TCGGTTGCAA | 1.45
66 | CCCTAGGATG | 1.46
67 | AGTACCTGCT | 1.03
68 | TAGCCAGGTC | 1.14
69 | GGGAAAAGCC | 0.999
70 | GGCTCTGTAA | 2
71 | GACTCATTTT | 0.996
72 | CCGTATGTCC | 1.02
73 | TGTTTAAGTC | 0.946
74 | TAGGCCCTT | 1.02
75 | AAGGTCTTCT | 1.03
76 | TATAGATCCG | 0.975
77 | AAATAGTATA | 0.994
78 | TCGAATTTCC | 1.02

Row | Sequence | switch fluorescence ratio
79 | CGTATGAAGT | 0.998
80 | GGAACGACGT | 1.04
81 | GAGTGAGCA | 1.02
82 | ACTGGTTGCT | 1.02
83 | TTTTCCATAT | 1.03
84 | GCTTGCGATT | 1.03
85 | TTTCGCGGC | 1.59
86 | TGATAACTTG | 0.992
87 | AGTAGGCTGT | 1
88 | TGGTTGGG | 0.99
89 | GATACCAGCA | 1.07
90 | GCCCCTTATT | 0.981
91 | CAGTCGGGTA | 0.972
92 | GACCCACCCC | 1.49
93 | CGAGCAGATT | 1.16
94 | AGCTATGGAC | 1.09
95 | TGAATGAGCC | 0.997
96 | CGGGGAGCT | 0.972
97 | CTTTCTAAAT | 1.01
98 | ATCGGAAATT | 0.941
99 | TGGTACCCTG | 0.973
100 | AAATTGCGC | 1.05
101 | GCTAAAACGT | 1
102 | TCTTTGGCGA | 1.03
103 | GTCGGCGTCC | 0.966
104 | AGTTCATTCG | 1.03

Row | Sequence | switch fluorescence ratio
105 | CGGTCTAAAG | 1.03
106 | GGTCAAAGCG | 0.963
107 | TCAAGTGGG | 1
108 | CCGTAGTTGT | 4.05
109 | CGTAATAGGG | 1.04
110 | TATTCCTCCG | 1.6
111 | AAGTAGAATC | 0.944
112 | GGGGGTTGC | 1.03
113 | ACCTCCTTGG | 0.968
114 | CACTGTGAGA | 1.03
115 | TTGCTCAATT | 1.03
116 | ATAAAGATT | 0.96
117 | ATTGCTATAT | 1.04
118 | GACTAGGACT | 1.01
119 | GGACGTAATA | 2.72
120 | ACCGGACGAC | 3.48
121 | ACAGACATCG | 1.04
122 | AGCCCTGTCT | 1.03
123 | TTCATTCGGT | 1.01
124 | TTGCCCACGC | 1.03
125 | AAGTACTTAT | 1.06
126 | TAAGCGACGC | 1.07
127 | TACCGCAGGG | 0.987
128 | CCTCCCTTGT | 2.32
129 | ACTTATCGCT | 1.01
130 | CATGCTATT | 1.03

Row | Sequence | switch fluorescence ratio
131 | ATGGAATCTC | 1.03
132 | GATCGAACAA | 0.992
133 | AATGGGCGGG | 0.952
134 | GTGGAACGGG | 0.98
135 | ACTATCTTTA | 1.04
136 | CCGTACCGGT | 1.03
137 | GGCCCATGTG | 1.93
138 | GGTATATCCA | 1.01
139 | CGCGATCTTA | 1.09
140 | ACACATCTGG | 1.01
141 | AGCCGAAGTT | 1.03
142 | GGATGGGTAC | 1.05
143 | AAATTTACGC | 1.09
144 | ACTCCCGTTT | 1.2
145 | CAAGGTTGGG | 1.1
146 | TAAATTCGGT | 0.979
147 | TACCCCATAT | 1.13
148 | CTCTTCGATT | 0.997
149 | AGTTTTTCCT | 1.04
150 | AGAAATCTAC | 1.11
151 | ATCCTCGACG | 1.07
152 | AAAGGTCCCC | 0.999
153 | GATCTGGCTC | 0.964
154 | GAGCCTACC | 1.07
155 | GCCCTCGACT | 1.02
156 | GGAATCCGGT | 1.03

Row | Sequence | switch fluorescence ratio
157 | CGAGCCAAAC | 2.33
158 | GCTACAC | 1.09
159 | GATCGGCGAT | 0.961
160 | GGTCAACGT | 0.987
161 | TTTATCCAGC | 1.03
162 | TTGATCTATG | 1
163 | GGCATTTGCA | 1.02
164 | CTTAATTACG | 1.08
165 | TGCTTAACTA | 0.991
166 | ATGTGGACAT | 0.979
167 | GCTAGCAGGG | 1.01
168 | TGCTTGGG | 1.01
169 | CGCCACGAAA | 0.987
170 | CCGGCGAGGA | 1.6
171 | TGTCTTTGCA | 1
172 | CATCTGTTGA | 0.992
173 | GCCTATTTCA | 1.01
174 | CCTTTTTTGA | 0.995
175 | CGCTTTTACA | 1.05
176 | CCTTCCAGAG | 2.87
177 | AATACAGC | 1.03
178 | TTTGACTAAC | 1.11
179 | ATACGAGCCT | 1.28
180 | AAAGCGGGGT | 1
181 | GCGGTAATAA | 1.09
182 | TAGCGAAATG | 1.01

Row | Sequence | switch fluorescence ratio
183 | CGCCAAACTT | 1.15
184 | CATTATATTG | 1.01
185 | AATTTGAG | 0.999
186 | TTCTCCGTCC | 3.03
187 | TCTCAATG | 1.05
188 | GATATAGTAA | 0.991
189 | CTGAATCCTT | 0.997
190 | CGGGAGACCT | 1.14
191 | ATGTTCCGTG | 1.02
192 | CAGTGACCCG | 0.99
193 | CTTGGTATAG | 0.982
194 | AGCCGTAGAG | 0.946
195 | GTGTCTTGTT | 0.983
196 | CGTTGAATTT | 0.956
197 | TCAAGAGAAT | 1.03
198 | GTGAAGAACC | 1.08
199 | CGGCCGGATT | 0.979
200 | AAAATGGTAG | 1
201 | TAGGTTGCGG | 0.965
